Source: PubChem BioAssay (NCI)
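Following 48 hours of exposure in 96-well plates, responses at five concentrations were used to interpolate endpoints linearly. GI50 is the concentration that inhibits growth by half. At the TGI there is no net growth.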

Test system: NCI-H322M lung
Assay: NCI tumour cell line growth inhibition, 48 h

O=C(O)/C=C\C(=O)Nc1ccc2c(c1)C(=O)c1cc(F)ccc1-2
TGI: > 100 µM

COc1cc(OC)cc(-c2cncn2-c2ccc(-c3nc4cc(OC)c(OC)c(OC)c4s3)cc2)c1
GI50: 86.5 µM
TGI: > 100 µM

COc1ccc([C@@H]2CC(=O)NCCCCNCCCN2)cc1
TGI: > 100 µM

CC(=O)OCC1OC(n2c(-c3ccccc3)c(C)c(C)c(C#N)c2=S)C(OC(C)=O)C(OC(C)=O)C1OC(C)=O (centres undefined)
TGI: > 100 µM

Cc1cccc(NC(=S)N/N=C(/c2ccccc2)c2ccccn2)c1
TGI: 4.72 µM

COc1cc(OC)nc(Nc2c(C#N)c3nc4ccccc4n3c3ccccc23)n1
TGI: > 100 µM

CCCCCCCCCCCCP(=O)(O)OCC(N)C(=O)O (centres undefined)
TGI: 55.6 µM

C/C(=N\NC(=O)c1ccncc1)c1ccc(O)cc1O
GI50: 1.4 µM
TGI: 45.7 µM

N=c1ccn2c(n1)O[C@@H]1[C@@H](O)[C@H](CO)O[C@@H]12
GI50: 9.11 µM
TGI: > 100 µM

CCN(CC)CC(O)C1CCC(c2ccccc2)CC1 (centres undefined)
TGI: > 100 µM

COC(=O)CCC(=O)c1ccc2c(c1)CC1(C2)Cc2ccc3c(c2C1)CCCC3=O (centres undefined)
TGI: > 100 µM
